Laboratory results as given in paper PMC10044308, “PRMT5 promotes ovarian cancer growth through enhancing Warburg effect by methylating ENO1” (MedComm, 2023).

Columns and labels:
[1] = target: the molecule itself; assay: cross-linking; purified recombinant GST-ENO1, with or without prior in vitro methylation by PRMT5, 0.0025% glutaraldehyde, room temperature, 5 min, 20 mM Tris-HCl pH 7.5, 100 mmol/L NaCl, 5% glycerol, 0.2 mmol/L EDTA, 2 mmol/L DTT; SDS-PAGE, ENO1 antibody; monomer to dimer
[2] = target: T1, purified recombinant PRMT5 (human, UniProt O14744-1); assay: co-IP; in vitro Co-IP: rPRMT5 and rGST-ENO1 purified from bacteria incubated with each other in vitro; which one was precipitated is not told; conditions: both partners purified
T1 construct: Human PRMT5, cDNA NM_006109.5 cloned into pETM3C; also called rPRMT5; rPRMT5 WT; source: bacteria, purified

| Binder | stoichiometry N [1] | binding result [2] | binding result [1] |
| --- | --- | --- | --- |
| purified recombinant GST-tagged ENO1 (enzyme, human, Human ENO1, cDNA NM_001428.5 cloned into pETM3C; also called rGST-ENO1; rGST-ENO1 WT; source: bacteria, purified; not shown: GST, N-terminal, kept) MSILKIHAREIFDSRGNPTVEVDLFTSKGLFRAAVPSGASTGIYEALELRDNDKTRYMGKGVSKAVEHINKTIAPALVSKKLNVTEQEKIDKL[skipping about 350 residues] | 2 | binds |  |
| purified recombinant GST-tagged ENO1 methylated in vitro by PRMT5 (enzyme, human, symmetric dimethylarginine (SDMA) at R9, Human ENO1, cDNA NM_001428.5 cloned into pETM3C; also called rGST-ENO1 WT incubated with rPRMT5; ENO1 methylated by recombinant PRMT5 or Flag-PRMT5; source: bacteria, purified, then in vitro methylation with rPRMT5 or Flag-PRMT5 and SAM; not shown: GST, N-terminal, kept) MSILKIHAREIFDSRGNPTVEVDLFTSKGLFRAAVPSGASTGIYEALELRDNDKTRYMGKGVSKAVEHINKTIAPALVSKKLNVTEQEKIDKL[skipping about 350 residues] |  |  | binds |
